In PMC12136788:
The other results are listed elsewhere or left out.

B1: chr17:60770872:60770873:+_ENSG00000011028_ENST00000303375|hu_hu|hu_hu_hu_mus_True|28_48 (ssRNA)
RNA: GGGAGUUCUACAGUCCGACGAUCUCUUUAAAAAAAAAAAAAAAAAGACAAACAAUAAUAGCACAUUUCGAGAAUCAAGAACUACAAAGAAAGGGCCGCUUUGAGUUGUCCAUGUUCUCGUCCUGCACUGGGACACGGGGACUGCAACAGAGGAUUGAGCAUCA
B2: chrX:101156880:101156881:-_ENSMUSG00000056537_ENSMUST00000070705|mus_hu|motif|central (ssRNA)
RNA: GGGAGUUCUACAGUCCGACGAUCAGGAAAACUUUAAAUUCUUCAGUUUUCUUUACUCCUCCCAUAUUUCACUUCCUGCCGGAAUCCAAGUUAAAUUAUACAAUUUCCACUGGUCUUCAACACGGUUUAAUUCUGCACUGUCCUCAACAGAGGAUUGAGCAUCA
B3: chr9:50470998:50470999:-_ENSMUSG00000032064_ENSMUST00000117646|mus_mus|FALSE|FALSE (ssRNA)
RNA: GGGAGUUCUACAGUCCGACGAUCUAGGCAGUUAAAACAGGUUAUUACAUUGAUCAUCGGAAACUUCUGGCAUAACAGUCUAUGAAAACAUUGUAAAACAGAAUACAUGGUAAGAAUCUCUGAAAGCAGUGGUCACAAACACCCCAACAGAGGAUUGAGCAUCA
B4: chr16:45382771:45382772:-_ENSMUSG00000022661_ENSMUST00000163230|mus_mus|mus_mus_mus_hu_True|78_98 (ssRNA)
RNA: GGGAGUUCUACAGUCCGACGAUCCUGGGUCAUGUUAUGGGCCCAAUGGACAGGGAGAGCAUGCUUUUCAAAAAAUGUGAGCUAUUGUCUAAGACUAACAAUAUUUAUCUAGCUAUAAAAAUAAGUUAAAUGAAUAAGUUAAGACAACAGAGGAUUGAGCAUCA
B5: chr1:88243738:88243739:-_ENSMUSG00000026234_ENSMUST00000027438|mus_mus|FALSE|FALSE (ssRNA)
RNA: GGGAGUUCUACAGUCCGACGAUCCAUGAGUUCAAUCCCCAGUAAUCACAUGGUGGCUCUCAAUAAUCUGUAAUGGGAUUCUAUGCCCUCUUCUGGUGUGUCUGAAGACAGCUACAGUGUACUCAUAUACAUAAAAUAAAAAUCCAACAGAGGAUUGAGCAUCA
B6: 132373464_132384851_235_CDS_ENSG00000081307_ENST00000264991|human|control|control (ssRNA)
RNA: GGGAGUUCUACAGUCCGACGAUCUGCUACGGCAAAGGUACGGAUUUUCUCAUAGUCGCUUACAAUUCCCAUUCGUUUCAAUGCCAUCAAGCGGCUGGUGGUGGGUAGCUGCUCUUUUCCCAGAGGGCUUACCACAGCCAAAGGCAACAGAGGAUUGAGCAUCA
B7: chr12:125396312:125396313:-_ENSG00000150991_ENST00000546120|hu_mus|FALSE|FALSE (ssRNA)
RNA: GGGAGUUCUACAGUCCGACGAUCGAUCUGCAUGCCACCUCUGAGGCGAAGGACCAGGUGCAGGGUGGACUCUUUCUGGAUGUUGUAGUCUGACAGGGUGCGGCCAUCUUCCAGCUGCUUGCCUGCAAAGAUCAGCCUCUGCUGCAACAGAGGAUUGAGCAUCA
B8: 123718901_123719873_1099_CDS_ENSG00000107672_ENST00000369023|human|control|control (ssRNA)
RNA: GGGAGUUCUACAGUCCGACGAUCAAUCUCAAAGGUCUUCACAAUCUCCUCCCAGUCACGGUAACUCAAAGCUAUAAUUCCUUGAUUUCUAACUUGUGUGUUAUGUUCAAAUCCCUCAUUUUCUUCAUUAAUACUAACAGGCUCCAACAGAGGAUUGAGCAUCA
B9: chr15:59387643:59387644:+_ENSG00000157450_ENST00000557998|hu_hu|FALSE|FALSE (ssRNA)
RNA: GGGAGUUCUACAGUCCGACGAUCAAGGAUGGUAUUUAACUCAGAACUCCAUAUAGUAAAUAUACAGCAGCCAUUUUGUCCUAAUUAAGGAAUGUCUUAAUACACAAUAUUAUCAUUUUCUAGAGGAUCUUUAUACAUUAAACUCAACAGAGGAUUGAGCAUCA
B10: chr14:102446093:102446094:+_ENSG00000197102_ENST00000360184|hu_hu|FALSE|FALSE (ssRNA)
RNA: GGGAGUUCUACAGUCCGACGAUCCUCCGGAAUUUCAAUAUUUUGCUGCAAGUGAAGGAGUCCCAUUUCGAGUUCUGCAAUCUUCUUUUCAACUGAAGGAGCCAUUUUAUCACCAUCCCUGUCUGCCUUGCCAGACUCUCUAAUCAACAGAGGAUUGAGCAUCA
B11: chr8:117878989:117878990:-_ENSG00000164754_ENST00000297338|hu_hu|hu_hu_hu_mus_True|38_38 (ssRNA)
RNA: GGGAGUUCUACAGUCCGACGAUCCCAGAGGCCCUCGUUUACUGAGGACAAAAUGUGCGUAGAACAUUUUUCUUAUUUGCUAUGAAAUAAGAAGAAAACCUUGCUCUGGCGGGGAGCCGGGAGGGGUGGGUGGCCCGGGGAGGGCAACAGAGGAUUGAGCAUCA
B12: 126172741_126172861_247_CDS_ENSG00000107902_ENST00000368842|human|control|control (ssRNA)
RNA: GGGAGUUCUACAGUCCGACGAUCCUCCUUCAGGAUCUGGCAGGCAGCUGGUGCCGGGGCGGUCACCUCCUGCUCAGAGAUGUCAAAUCCCAGCCUCUGAAGCUGCCCCACCAGCUCUGCCCGGGACUUCUGCGACUCGUUGGUCAACAGAGGAUUGAGCAUCA
B13: chr20:37186997:37186998:+_ENSG00000170471_ENST00000397040|hu_mus|FALSE|FALSE (ssRNA)
RNA: GGGAGUUCUACAGUCCGACGAUCAUCAAAAAAUCCAGGUAUGGUAGAAUCGAGUGCAAUAAGAUGAGGAGGUAGACGACUAUUUGCAGGUUCCUUUAAUGCCUCUAAGGAUAAAAAUCCAAAGUGAGAAAGGAAAAGGCGGGCCAACAGAGGAUUGAGCAUCA
B14: chr20:57015987:57015988:+_ENSG00000124164_ENST00000520497|hu_hu|FALSE|FALSE (ssRNA)
RNA: GGGAGUUCUACAGUCCGACGAUCUCCAUAACCUUCUUAACUUCGGUGUCAUCCAAAGAAGAACUCAGAGACUUAGACACUAUUGGUGUUUCUGUCUUUGAUGCAGUUGUGGAUAUAAUUUUAUUUAUUUCUACAUCAUGCAGACAACAGAGGAUUGAGCAUCA
B15: chr5:10263280:10263281:+_ENSG00000150753_ENST00000503026|hu_hu|FALSE|FALSE (ssRNA)
RNA: GGGAGUUCUACAGUCCGACGAUCGAGGGCCAUGGGGAUGACCUCCAGUGCGUCGGCAAACGCUCUCAUGGCAUACUGUUCUAAGGUGGGGCACUUAUCCGCCUCUUGGCUAACUGCCAGGGCACAGGAUAUCUCAGCAGCCCCCAACAGAGGAUUGAGCAUCA
B16: chr6:86246577:86246578:-_ENSG00000135317_ENST00000369627|hu_mus|FALSE|FALSE (ssRNA)
RNA: GGGAGUUCUACAGUCCGACGAUCUAAUUAGGCAGCACAGCUCCCUCCAUUGUCGUACUCUUGAAUACGCCUUUAAUUUUGCUACCUAUUCUGCUGAUUCCAAACGAUUCUCCUCUUUUUUGUGUGCUUCUAAAUAUUAAACAACAACAGAGGAUUGAGCAUCA
B17: chr7:7679991:7679992:-_ENSG00000106399_ENST00000396682|hu_hu|hu_hu_hu_mus_False|38_78 (ssRNA)
RNA: GGGAGUUCUACAGUCCGACGAUCUGGGAUGAAUCUUUUCCAGCUUCCCCACGAAGCAGACAGGCUUGUCGAUAUACUGUGGUAACAUGCUGGCGUUGAUGCGCGACUUGGGGAGCUGCAUUAUGUCCUCCAUGAUUCUGCCGCCAACAGAGGAUUGAGCAUCA
B18: chr9:59476459:59476460:+_ENSMUSG00000025237_ENSMUST00000026267|mus_mus|FALSE|FALSE (ssRNA)
RNA: GGGAGUUCUACAGUCCGACGAUCUUUCAGCAUAGAGUCCUGUAUGAUAGGAAAACUGGGAGACUUGGGAAUGGGUGAGAAGAUGCUGAGGCCAGCUCGGAACUUCUUGAUGGUACCACUUGCCUUGAACCAACUGUGCCUCUUCAACAGAGGAUUGAGCAUCA
B19: chr7:106468345:106468346:+_ENSMUSG00000055407_ENSMUST00000127492|mus_hu|FALSE|FALSE (ssRNA)
RNA: GGGAGUUCUACAGUCCGACGAUCCCCAAACACUGCUUGUGGAACCAAAAUCAGUUUCAUUCAGUACGUUUGGGAUAUAGAAUGAGACUGGCUGAGUUUUAUUUGUAAACAGUAGAAAUCAAAGGAAGUCUCUUGCCAGUAAAGCAACAGAGGAUUGAGCAUCA
B20: chr10:1038518:1038519:+_ENSG00000107937_ENST00000545048|hu_hu|hu_hu_hu_mus_False|58_68 (ssRNA)
RNA: GGGAGUUCUACAGUCCGACGAUCCAGUCUGUCAUGGUAAUUCUGUUGAGUAAAUUUGACUUUUCUCAUGUAAAAAUGUCUAAUGCGAUGAAUUUGAUAAUGUUUAUGAAUAACCGUUGGAGUCUUUCGUUGAGUCUUGGAUAACAACAGAGGAUUGAGCAUCA
B21: chrX:71549400:71549401:+_ENSMUSG00000019087_ENSMUST00000019231|mus_hu|mus_mus_mus_hu_False|78_108 (ssRNA)
RNA: GGGAGUUCUACAGUCCGACGAUCGCAAGGAAGAGGAGGAAGCUCUUCAGUCCAGUGGUCACAAAACUGGGAAAGCAACAACACGGACACCGUCCCACCCUCAACCCCCCCACUGGCACAGGGUCACACAAUCUGGGUCAAAGACAACAGAGGAUUGAGCAUCA
B22: chr12:28025581:28025582:-_ENSMUSG00000063632_ENSMUST00000079063|mus_mus|FALSE|FALSE (ssRNA)
RNA: GGGAGUUCUACAGUCCGACGAUCUUUUUAAAUCUCUUAAGAAAAAAAAAUCAACUCCCUAGAGUAACAGUUGUGCCGUCUAAAGGGUCCUCUGCCGAUGUCUUUCAGACUUCAAAGAGCCACAAGCUUCAAACAGCGCCUUCCCAACAGAGGAUUGAGCAUCA

target: T1, UNK ZnF1-3 (human, UniProt Q9C0B0 31-174); test: nsRBNS (natural sequence RNA bind-n-seq); RBNS binding buffer (assumed for nsRBNS): 25 mM Tris pH 7.5, 150 mM KCl, 3 mM MgCl2, 0.01% Triton X-100, 500 ug/ml BSA, 20 U/ml SUPERase-In, 4 C; UNK is unkempt and MSI1 is Musashi-1; names of the RNAs are library labels; protein concentration not given here; high values mean tight binding
T1 sequence: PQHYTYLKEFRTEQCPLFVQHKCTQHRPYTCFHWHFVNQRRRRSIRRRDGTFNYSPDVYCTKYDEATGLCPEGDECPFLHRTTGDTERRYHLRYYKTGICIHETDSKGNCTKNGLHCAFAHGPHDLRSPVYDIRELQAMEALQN

Row | Binder | binding signal [enrichment R]
1 | B1 | 2.6
2 | B2 | 0.725
3 | B3 | 1.25
4 | B4 | 1.44
5 | B5 | 1.74
6 | B6 | 0.652
7 | B7 | 1.01
8 | B8 | 1.02
9 | B9 | 0.989
10 | B10 | 1.1
11 | B11 | 1.64
12 | B12 | 0.367
13 | B13 | 1.49
14 | B14 | 0.477
15 | B15 | 0.947
16 | B16 | 0.988
17 | B17 | 0.54
18 | B18 | 0.995
19 | B19 | 0.853
20 | B20 | 0.778
21 | B21 | 1.74
22 | B22 | 0.808
